The values that follow come from publication PMC4336329 (PLoS ONE, 2015).

Among all 310,000 compounds or so, about 14,000 (4.5%) showed an effect of 50% or more. Effects have a minus sign here. This is one part of the list.
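Note: peak tail current of the secondary pulse compared with the same well before compound.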

For this assay, the target named is human ether-à-go-go-related gene (hERG) potassium channel (human, UniProt Q12809). Put plainly: primary screen, population patch clamp on CHO cells stably expressing hERG.
Chain of human ether-à-go-go-related gene (hERG) potassium channel (Q12809 whole entry, looked up): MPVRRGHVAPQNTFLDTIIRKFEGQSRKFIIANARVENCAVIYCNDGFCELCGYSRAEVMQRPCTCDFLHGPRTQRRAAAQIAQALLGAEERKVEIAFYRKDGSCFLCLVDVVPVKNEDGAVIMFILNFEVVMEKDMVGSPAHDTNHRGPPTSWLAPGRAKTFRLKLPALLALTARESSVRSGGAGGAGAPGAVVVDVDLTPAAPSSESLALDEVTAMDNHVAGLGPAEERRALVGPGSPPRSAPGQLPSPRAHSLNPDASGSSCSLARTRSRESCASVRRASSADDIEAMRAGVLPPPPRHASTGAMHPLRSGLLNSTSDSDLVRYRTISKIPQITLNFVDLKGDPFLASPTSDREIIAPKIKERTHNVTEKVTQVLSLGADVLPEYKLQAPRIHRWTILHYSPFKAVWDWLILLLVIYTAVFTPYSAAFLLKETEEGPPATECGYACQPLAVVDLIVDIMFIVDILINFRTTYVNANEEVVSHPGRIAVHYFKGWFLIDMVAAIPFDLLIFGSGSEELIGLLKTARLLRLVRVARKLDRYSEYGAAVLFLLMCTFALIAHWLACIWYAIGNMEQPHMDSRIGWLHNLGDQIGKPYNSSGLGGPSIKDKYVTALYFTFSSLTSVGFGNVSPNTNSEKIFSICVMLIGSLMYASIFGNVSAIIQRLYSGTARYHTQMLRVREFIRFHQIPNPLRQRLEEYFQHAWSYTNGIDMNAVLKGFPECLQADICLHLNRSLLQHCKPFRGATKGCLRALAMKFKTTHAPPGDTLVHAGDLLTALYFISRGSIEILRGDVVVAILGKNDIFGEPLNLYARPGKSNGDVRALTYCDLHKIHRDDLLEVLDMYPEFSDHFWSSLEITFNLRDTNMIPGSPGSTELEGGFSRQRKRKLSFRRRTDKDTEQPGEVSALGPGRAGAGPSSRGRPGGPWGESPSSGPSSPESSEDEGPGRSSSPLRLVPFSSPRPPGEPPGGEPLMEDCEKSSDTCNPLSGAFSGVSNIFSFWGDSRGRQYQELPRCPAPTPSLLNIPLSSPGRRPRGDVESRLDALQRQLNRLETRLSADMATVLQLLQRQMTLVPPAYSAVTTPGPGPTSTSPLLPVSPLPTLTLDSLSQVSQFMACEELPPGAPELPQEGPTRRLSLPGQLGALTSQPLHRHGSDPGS
`CCN(CC)S(=O)(=O)c1cccc(N=Nc2c(O)n(CC)c(=S)n(CC)c2=O)c1`: the “hERG current change (%, negative = inhibition) at 10uM” value is listed as -7.87%.

Take `CC(=O)NC1=NC(=O)C(C)S1` (centres unmarked): the “hERG current change (%, negative = inhibition) at 10uM” value came out at 18.9%.

On to `Cc1nc2sc(C(c3cccc(F)c3)N3CCCC(C)C3)c(O)n2n1` (centres unmarked), for which the “hERG current change (%, negative = inhibition) at 10uM” value is given as -6.93%. In the case of `Cc1noc(C)c1C(=O)N1CCCC(C(=O)c2ccc(Cl)cc2)C1` (centres unmarked) it was -17.2%; in that of `CCOc1ccccc1N(CC(=O)Nc1cccnc1)S(C)(=O)=O`, 13%.

In the case of `Cc1cc(C)cc(OC(=O)CCN2C(=O)c3ccccc3C2=O)c1`, the “hERG current change (%, negative = inhibition) at 10uM” value is on record as -3.19%. In the case of `Cc1cc(S(=O)(=O)N2CCN(c3ccccn3)CC2)c(C)cc1Cl` it was -5.71%.

For `O=C(COC(=O)COc1ccccc1F)Nc1ccc2c(c1)OCO2`, the “hERG current change (%, negative = inhibition) at 10uM” value came out at 8.45%. On to `O=C(NCc1ccccc1C(F)(F)F)C1CCC(=O)N(C2CCCCCC2)C1` (centres unmarked), for which the “hERG current change (%, negative = inhibition) at 10uM” value is recorded as -6.51%. The figure for `COc1cc(C2=NOC(C(=O)NCc3cccs3)C2)cc(OC)c1OC` (centres unmarked) is 9.97%; for `CCCn1c(SCc2ccc(Cl)cc2)nc2c1c(=O)[nH]c(=O)n2C` it is 0.36%; for `COc1ccc(S(=O)(=O)N2CCCCC2)cc1NC(=O)C1COc2ccccc2O1` (centres unmarked) it is -17.8%.

In the case of `Cc1cccc(-n2nnnc2SCC(=O)c2cc(C)n(CC3CCCO3)c2C)c1` (centres unmarked), the “hERG current change (%, negative = inhibition) at 10uM” value was -35.4%. The figure for `CC1(C)Cc2ccccc2-c2nc3ccccc3c(=O)n21` is -10.3%; for `CCOC(=O)C1CCN(c2cc3c(cc2NC(=O)c2ccccc2)n(C)c(=O)n3C)CC1` it is 19%; for `COc1ccc(NC(=O)Cn2nc(C(=O)O)c3ccccc3c2=O)cc1OC` it is 13.8%. The figure for `N#Cc1ccccc1Cn1cc(C(=O)C2CC2)c2ccccc21` is 21.4%; for `Cc1nc2c(ccc3nc(NC(=O)c4ccc(S(=O)(=O)N(C)C)cc4)sc32)s1` it is 15.2%. Regarding `COc1ccc(Cl)cc1NS(=O)(=O)c1c(C)[nH]c(=O)[nH]c1=O`, the “hERG current change (%, negative = inhibition) at 10uM” value is on record as -6.36%. In the case of `CC1(c2ccccc2Cl)NC(=O)N(CC(=O)c2ccc3c(c2)OCO3)C1=O` (centres unmarked), the “hERG current change (%, negative = inhibition) at 10uM” value is listed as -22.9%. In the case of `O=C(Nc1ccc(-c2nc3ncccc3o2)cc1)c1ccco1` it was 15.8%. For the compound `Cc1ccc(N(C(C)C(=O)N2CCC(C)CC2)S(C)(=O)=O)cc1C` (centres unmarked), the “hERG current change (%, negative = inhibition) at 10uM” value is reported as -14.7%. In the case of `CCN1C=C(C(=O)OC)C(c2cccc(C)c2)C(C(=O)OC)=C1` it was -2.25%; in that of `CC(C)CCN(CC(=O)NC(C)(C)C)C(=O)C(=O)Nc1ccc2c(c1)OCCO2`, -6.24%.

Regarding `COc1cc(C2SCC(=O)N2CCc2ccc(OC)c(OC)c2)ccc1O` (centres unmarked), the “hERG current change (%, negative = inhibition) at 10uM” value is reported as 7.52%.

Consider `Cc1ccc(S(=O)(=O)N2CCOCC2)cc1C(=O)OCC(=O)NC1CCCC(C)C1C` (centres unmarked), for which the “hERG current change (%, negative = inhibition) at 10uM” value is -15.9%.

With `CCOc1ccc(NC(=O)N(C2CCCCC2)C(C)c2ccncc2)cc1` (centres unmarked), the “hERG current change (%, negative = inhibition) at 10uM” value is -27.1%. The figure for `COS(=O)(=O)[O-].C[N+]1(C)CCC(=C(c2ccccc2)c2ccccc2)CC1` is -71%; for `COc1ccc(N2CC(O)=C(c3n(C)c4ccccc4[n+]3C)C2=N)cc1.[Cl-]` it is -17.4%.

Regarding `O=C(c1ccc(Br)o1)N1CCN=C1SCc1cccc(F)c1`, the “hERG current change (%, negative = inhibition) at 10uM” value worked out at 1.33%.

As to `Cc1ccc(S(=O)(=O)N2CCC(C(=O)N3CCCC(C(F)(F)F)C3)CC2)cc1C` (centres unmarked), the “hERG current change (%, negative = inhibition) at 10uM” value is recorded as -10.2%. In the case of `Cc1ccc2c(c1)NC(=O)C(CC(=O)Nc1ccc(Br)c(C)c1)O2` (centres unmarked) it was 13.2%; in that of `COc1ccc(C(OCC(O)CN2CCC(O)CC2)c2ccc(OC)cc2)cc1` (centres unmarked), -48%; in that of `CN(C(=O)COC(=O)c1ccc2c(=O)n3c(nc2c1)CCC3)c1ccccc1`, 0.681%. The figure for `CC1=C(C(=O)OCc2ccccc2)C(c2ccccc2)NC(=O)N1` (centres unmarked) is 13.7%; for `CCc1n(CC(O)COCC2CC=CCC2)c2ccccc2[n+]1C.[I-]` (centres unmarked) it is -35.3%. `CC(C)NC(=O)CSc1nnc(-c2ccc(S(=O)(=O)N3CCCC3)cc2)n1CC1CCCO1` (centres unmarked): the “hERG current change (%, negative = inhibition) at 10uM” value is given as 4.22%.

On to `COc1ccccc1CNC(=O)CN(Cc1ccc(Cl)cc1)S(C)(=O)=O`, for which the “hERG current change (%, negative = inhibition) at 10uM” value is listed as -14.7%.

On to `CCc1ccc(C(=O)Nc2cc3c(cc2Cl)OCCCO3)cc1`, for which the “hERG current change (%, negative = inhibition) at 10uM” value stood at 23.5%.

On to `COc1cc(NC(=O)Cc2ccccc2)ccc1NC(=O)c1ccccc1`, for which the “hERG current change (%, negative = inhibition) at 10uM” value is reported as -2.16%.

Regarding `CC1(C)CC(=O)C2=C(C1)N(Cc1ccco1)C(=O)NC2(C(F)(F)F)C(F)(F)F`, the “hERG current change (%, negative = inhibition) at 10uM” value is listed as 15.6%.

In the case of `O=C(CCCOc1ccccc1)N1CCN(c2ccc(F)cc2)CC1`, the “hERG current change (%, negative = inhibition) at 10uM” value is -42%.

In the case of `CCn1c(-c2csc(C(C)C)c2)n[nH]c1=S`, the “hERG current change (%, negative = inhibition) at 10uM” value is on record as 37.1%. The figure for `NS(=O)(=O)c1ccc(NC(=O)COC(=O)COc2cccc(C(F)(F)F)c2)cc1` is 23%; for `CCN1CCCC1CNC(=O)c1cc2c(-c3cccc(OC)c3)nn(C)c2s1` (centres unmarked) it is -46.3%.

As to `O=C(CSCc1cccc(F)c1)N1CCN(c2ccccc2)CC1`, the “hERG current change (%, negative = inhibition) at 10uM” value is on record as -19.2%. In the case of `COc1ccc(CCNC(=O)COc2ccc(S(=O)(=O)N3CCOCC3)cc2)cc1OC` it was -4.85%.

For `Cc1cc(C)cc(NC(=S)N2CC(C)OC(C)C2)c1` (centres unmarked), the “hERG current change (%, negative = inhibition) at 10uM” value is reported as 15.5%.

Take `CC1(C)C2CCC(C2)C1(C)NC(=O)CN1CCOCC1.Cl` (centres unmarked): the “hERG current change (%, negative = inhibition) at 10uM” value is on record as 1.1%. In the case of `CCc1cc(SC#N)cc(CC)c1NC(=O)CCl` it was 22.3%. The figure for `CCCCN(C(=O)CCC(=O)Nc1cc(C)on1)C(C(=O)NC1CCCC1)c1ccc(OC)cc1` (centres unmarked) is -20%. Consider `COc1ccc(S(=O)(=O)N2CCN(C)CC2)cn1`, for which the “hERG current change (%, negative = inhibition) at 10uM” value came to 30.7%. The figure for `O=C(COc1cccc(-n2cnnn2)c1)N1CCOCC1` is 2.13%. As for `Cc1ccc(S(=O)(=O)N2CCC(C(=O)Nc3nnc(C4CCCC4)s3)CC2)cc1`, the “hERG current change (%, negative = inhibition) at 10uM” value is on record as -2.6%.

Turning to `COCCN1C(=O)c2ccc(C(=O)Nc3nccs3)cc2C1=O`, the “hERG current change (%, negative = inhibition) at 10uM” value is -25.1%. On to `O=C(C1=COCCO1)N(Cc1nnc(-c2ccccc2Cl)o1)C1CC1`, for which the “hERG current change (%, negative = inhibition) at 10uM” value is 2.19%. In the case of `O=C(Nc1cccnc1)/C(N=Nc1ccc(Cl)c(C(F)(F)F)c1)=C(\O)c1ccccc1` it was 29.3%; in that of `CCOC(=O)N1CCN(C(=O)CSc2ccc(-c3ccc(OC)cc3)nn2)CC1`, -14.7%. The figure for `O=C(NCCO)c1nsnc1NCCCl` is -17.7%; for `COc1cc(OC)c(C(=O)NCC2CCCO2)cc1OC` (centres unmarked) it is 19.3%; for `O=C1NCC(CN(c2ccccc2)c2ccccc2)O1` (centres unmarked) it is -16.4%.

As to `CCCCNC(=O)COC(=O)c1ccc(SC)cc1OC`, the “hERG current change (%, negative = inhibition) at 10uM” value is on record as 16.2%. With `Cc1cccc(C)c1NC(=S)NCCCN1CCCC1=O`, the “hERG current change (%, negative = inhibition) at 10uM” value was found to be 2.28%. The figure for `CSc1ccccc1C(=O)NCc1ccc(S(N)(=O)=O)cc1` is 5.7%. The figure for `O=C(Nc1nc2ccc(F)cc2s1)c1cccc(S(=O)(=O)N2CCc3ccccc32)c1` is 3.9%. `Cc1ccc(N(CC(=O)NC2CCCCC2)S(=O)(=O)c2cccs2)cc1`: the “hERG current change (%, negative = inhibition) at 10uM” value is recorded as 5.9%.

As to `O=Cc1ccc(OC2OCCOC2Oc2ccc(C=O)cc2)cc1` (centres unmarked), the “hERG current change (%, negative = inhibition) at 10uM” value is given as -45.2%. As for `CCc1nonc1NC(=O)COc1ccc(Cl)c(C)c1`, the “hERG current change (%, negative = inhibition) at 10uM” value is 8.59%.

With `O=C1CCCN1CCNC(=S)Nc1ccccc1`, the “hERG current change (%, negative = inhibition) at 10uM” value is -5.35%. In the case of `COc1ccccc1OCC(=O)N/N=C1\CCCCc2ccccc21` it was -18.1%. `CCc1ccc(NC(=O)C2CCN(S(=O)(=O)c3ccc4c(c3)N(C(C)=O)CCO4)CC2)cc1`: the “hERG current change (%, negative = inhibition) at 10uM” value is listed as -7.52%. As to `CC(C)(C)NC(=O)CN(Cc1cccs1)C(=O)CCN1CCc2ccccc21`, the “hERG current change (%, negative = inhibition) at 10uM” value is recorded as -18.9%. For the compound `COc1cccc(C(=O)Nc2ccc(N3CCN(C(=O)c4cccs4)CC3)cc2)c1`, the “hERG current change (%, negative = inhibition) at 10uM” value was -19.7%. Consider `O=C(/C=C/c1ccc(Cl)cc1Cl)Nc1ccc(CN2CCOCC2)cc1`, for which the “hERG current change (%, negative = inhibition) at 10uM” value is given as -17.8%. In the case of `CCOCCc1nnc(NC(=O)Cc2c(F)cccc2Cl)s1` it was -1.8%.

Take `COc1ccc(CN2CCCC(C(=O)N3CCCC3)C2)c(OC)c1.O=C(O)C(=O)O` (centres unmarked): the “hERG current change (%, negative = inhibition) at 10uM” value is recorded as -9.41%.

Consider `Cc1cc(NS(=O)(=O)c2ccc(NC(=O)C3CCCCC3)cc2)no1`, for which the “hERG current change (%, negative = inhibition) at 10uM” value was 20.8%.

On to `COc1cccc(C(=O)N/N=C(\C)CC(=O)Nc2ccc(N(C)C)cc2)c1`, for which the “hERG current change (%, negative = inhibition) at 10uM” value is reported as 5.85%. In the case of `O=C(Nc1ccc2oc(-c3cccc4ccccc34)nc2c1)c1ncn[nH]1` it was 2.72%; in that of `CCOC(=O)C1CCCN(C(=O)c2ccc(C)c([N+](=O)[O-])c2)C1` (centres unmarked), 12.4%. The figure for `O=C(Nc1cccc(-c2cn3cccnc3n2)c1)c1ccc(Br)o1` is -13.2%; for `COCCCNS(=O)(=O)c1ccc2[nH]c(=O)[nH]c2c1` it is 3.04%; for `O=C(COC(=O)c1cccc(NS(=O)(=O)c2ccc(F)c(F)c2)c1)NC(=O)NC1CCCC1` it is 16.5%. For `CSc1nc(C)nc2c1c(=O)n(C)c(=O)n2C`, the “hERG current change (%, negative = inhibition) at 10uM” value is recorded as -9.42%. In the case of `COc1ccc(CCN2C(=O)c3ccccc3C2(O)c2ncc[nH]2)cc1OC` (centres unmarked) it was 15.8%. The figure for `Cc1cc(NC(=O)C2CC(c3c(F)cccc3Cl)=NO2)n(-c2ccccc2)n1` (centres unmarked) is -9.57%; for `Cn1c(=O)[nH]c(=O)c2[nH]c(CN3CCN(C(=O)c4ccco4)CC3)nc21` it is -13.1%; for `O=C(O)CCC(=O)Nc1ccc(/C=C/C(=O)C2CC2)cc1` it is 23.8%. As to `O=c1[nH]cc(N(CCO)CCO)c(=O)[nH]1`, the “hERG current change (%, negative = inhibition) at 10uM” value worked out at 11.5%.
